SMILES strings stand for the structures. The campaign covered roughly 310,000 compounds. About 14,000 (4.5%) showed an effect of 50% or more. Effects have a minus sign here. The list shows a part of the results.
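Further: peak tail current of the secondary pulse compared with the same well before compound.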

The target of this test is human ether-à-go-go-related gene (hERG) potassium channel (human, UniProt Q12809). Description: primary screen, population patch clamp on CHO cells stably expressing hERG.
human ether-à-go-go-related gene (hERG) potassium channel, sequence (Q12809 whole entry, looked up): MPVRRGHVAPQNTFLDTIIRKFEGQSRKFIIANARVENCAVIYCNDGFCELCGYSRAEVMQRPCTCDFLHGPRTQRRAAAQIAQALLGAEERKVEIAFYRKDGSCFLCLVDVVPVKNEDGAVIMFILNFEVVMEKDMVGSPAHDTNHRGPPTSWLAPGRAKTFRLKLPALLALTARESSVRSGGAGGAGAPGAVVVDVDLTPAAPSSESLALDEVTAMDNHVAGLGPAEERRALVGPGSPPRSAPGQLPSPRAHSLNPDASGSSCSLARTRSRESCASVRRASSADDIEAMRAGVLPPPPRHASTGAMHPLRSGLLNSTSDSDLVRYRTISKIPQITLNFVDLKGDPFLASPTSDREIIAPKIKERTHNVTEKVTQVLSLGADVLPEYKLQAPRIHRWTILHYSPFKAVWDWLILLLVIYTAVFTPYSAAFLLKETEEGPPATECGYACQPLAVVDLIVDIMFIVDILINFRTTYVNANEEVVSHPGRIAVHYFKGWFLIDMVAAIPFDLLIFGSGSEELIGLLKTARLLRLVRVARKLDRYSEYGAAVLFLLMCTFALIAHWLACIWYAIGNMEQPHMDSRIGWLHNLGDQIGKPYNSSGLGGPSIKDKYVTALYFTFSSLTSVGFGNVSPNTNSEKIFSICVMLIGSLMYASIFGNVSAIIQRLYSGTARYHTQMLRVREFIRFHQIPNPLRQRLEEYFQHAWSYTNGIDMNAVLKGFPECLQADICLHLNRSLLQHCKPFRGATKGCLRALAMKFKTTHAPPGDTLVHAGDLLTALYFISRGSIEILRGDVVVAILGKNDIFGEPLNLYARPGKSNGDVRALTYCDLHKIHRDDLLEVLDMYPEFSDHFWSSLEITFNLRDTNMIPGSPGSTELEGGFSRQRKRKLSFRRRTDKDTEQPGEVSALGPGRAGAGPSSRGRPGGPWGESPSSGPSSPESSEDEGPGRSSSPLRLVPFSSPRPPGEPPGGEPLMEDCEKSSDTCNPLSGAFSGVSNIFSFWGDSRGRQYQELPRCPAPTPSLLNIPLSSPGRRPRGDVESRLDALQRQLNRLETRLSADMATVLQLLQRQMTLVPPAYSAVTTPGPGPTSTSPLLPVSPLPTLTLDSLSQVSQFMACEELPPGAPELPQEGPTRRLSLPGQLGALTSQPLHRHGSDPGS
Turning to `NC1=NC(c2cccc(O)c2)n2c(nc3ccccc32)N1` (stereo not shown), the “hERG current change (%, negative = inhibition) at 10uM” value came out at 9.75%.
The value for `Cc1noc(C)c1S(=O)(=O)N(C)Cc1ccccc1` was 20.5%; that for `COC(=O)C1=C(c2cccc(OCc3ccccc3)c2)C[C@@H]2CC[C@H]1N2C(=O)NCCOc1ccccc1Cl` was 5.83%; that for `O=C1C2C3C=CC(C3)C2C(=O)N1CC1CCCO1` (stereo not shown) was 21.7%.
To `CCC(=O)Nc1nc(C)c(C(=O)N2CCCCC2)s1` belongs 12.4%.
The value for `O=C(Nc1ccccc1)Nn1cnnc1` was 19.5%; that for `O=C(Nc1ccccc1)OCCOc1ccc(Br)cc1` was 30.3%.
For `O=C(N/N=C/c1cc([N+](=O)[O-])cc(Br)c1O)C12CC3CCC(CC(C3)C1)C2`, the “hERG current change (%, negative = inhibition) at 10uM” value came out at 2.01%.
To `CO/N=C/c1ccc(OC)c(Oc2nc(OC)cc(OC)n2)c1` belongs 9.21%.
For the compound `COc1ccccc1-c1nc(-c2ccncc2)no1`, the “hERG current change (%, negative = inhibition) at 10uM” value came out at 4.28%.
Turning to `Cc1cc(=O)c(C(=O)Nc2cccc(N3CCCC3=O)c2)nn1-c1ccccc1F`, the “hERG current change (%, negative = inhibition) at 10uM” value is -16.8%.
To `O=c1[nH]cnc2c1sc(=S)n2-c1ccccc1` belongs 1%; to `CN(C(=S)NCCN1CCOCC1)C(c1ccccc1)c1ccccc1`, -36.5%.
The value for `CCCCNC(=S)NNC(=O)c1csc(C)c1CC` was 23.8%; that for `COc1ccc(NC(=O)c2cccn(CC=C(C)C)c2=O)cc1` was -4.72%; that for `O=C(CO/N=C/c1ccccc1)Nc1c(F)c(F)c(F)c(F)c1F` was -9.64%.
To `COc1cccc(NC(=S)N2CCN(C(c3ccccc3)c3ccccc3)CC2)c1` belongs -3.08%; to `CCOc1ccc(S(=O)(=O)N(CC(=O)NCc2cccnc2)c2ccc(F)cc2)cc1`, -72.5%.
Take `Cn1c(N)c(C(=O)COC(=O)c2cncc(Br)c2)c(=O)n(C)c1=O`: the “hERG current change (%, negative = inhibition) at 10uM” value is -10.2%.
The value for `CCOC(=O)C1=C(C)NC2=C(C(=O)OC2)C1c1ccccc1` (stereo not shown) was 3.65%.
The value for `O=C(N/N=C/c1ccc(Br)cc1)c1ccc(Br)o1` was 5.79%.
For the compound `CCOC(=O)N=S(N)(=O)c1ccc(Cl)cc1` (stereo not shown), the “hERG current change (%, negative = inhibition) at 10uM” value was determined as 7.53%.
On to `Cc1cccn2c(=O)c(C=O)c(N3CCN(c4ccc(F)cc4)CC3)nc12`, for which the “hERG current change (%, negative = inhibition) at 10uM” value is listed as -22.1%.
Regarding `Cc1ccc(C(NC(=O)C2CCCCC2)c2c(O)ccc3ccccc23)cc1` (stereo not shown), the “hERG current change (%, negative = inhibition) at 10uM” value is reported as -4.41%.
To `O=C1[C@H]2[C@H](C=CC[C@H]2C(=O)N2CCN(c3ccccc3)CC2)CCN1Cc1ccc(Cl)c(Cl)c1` belongs -32.5%.
To `CC(=O)c1cccc(NC(=O)CN2C(=O)c3cccnc3Oc3ccc(Cl)cc32)c1` belongs 3.6%; to `Cc1cc(=O)oc(C)c1C(=O)OCC(=O)c1ccc(Br)cc1`, -10.3%; to `Br.CCN(CC)S(=O)(=O)c1cccc(-c2nc3n(n2)Cc2ccccc2-3)c1`, -18.7%.
To `C=CCOc1c(Br)cc(CNc2ccc(NC(=O)CCC)cc2)cc1OCC` belongs 5.43%; to `COc1ccc(CN2CCN(C(=O)c3cc(OC)c(OC)c(OC)c3)CC2)cc1OC`, 10.4%.
Regarding `CCCNc1oc(-c2cccc3ccccc23)nc1C#N`, the “hERG current change (%, negative = inhibition) at 10uM” value is listed as 5.06%.
For the compound `COc1ccc2[nH]c(=O)c(CN(c3ccccc3)S(=O)(=O)c3ccccc3)cc2c1`, the “hERG current change (%, negative = inhibition) at 10uM” value is 11.2%.
The value for `CC(C)(C)C(=O)Cn1ncc(NC2CC2)c(Br)c1=O` was 3.04%; that for `CS(=O)(=O)N(Cc1ccccc1)c1ccc(C(=O)NCCSCc2ccco2)cc1` was -18%.
The value for `COC(=O)c1cc(C#N)c(Oc2ccc(OC)cc2)nc1C` was -23.7%.
To `O=C1CC(NC(=O)c2ccc(Cl)cc2)C(=O)N1` (stereo not shown) belongs 14.8%; to `O=C(CSc1nnc(-c2cccnc2)n1-c1ccccc1)Nc1ccccc1`, -76.3%.
For `Cc1cccc(/C=C2/SC(=O)N(Cc3ccccc3)C2=O)n1`, the “hERG current change (%, negative = inhibition) at 10uM” value was 1.77%.
Take `O=C(O)CSc1nnc(Cc2ccccc2)n1Cc1ccccc1`: the “hERG current change (%, negative = inhibition) at 10uM” value is given as -7.15%.
The value for `CC(=O)N1c2ccc(S(=O)(=O)NCc3ccccc3Cl)cc2CC1C` (stereo not shown) was -17.2%; that for `CN(CC(=O)Nc1ccc(F)cc1)C(=O)COC(=O)CN1C(=O)NC2(CCCC2)C1=O` was 24.5%; that for `ONC(=Nc1ccccc1Cl)c1ccccc1Cl` was -14%.
The value for `COc1ccc(N(C(C)C(=O)N/N=C/c2cccnc2)S(C)(=O)=O)cc1` (stereo not shown) was -3.44%; that for `COC(=O)Nc1nc(-c2cc(Cl)ccc2Cl)cs1` was 13.7%.
As to `CCN1CCN(CCCNc2ncnc3nc[nH]c23)CC1`, the “hERG current change (%, negative = inhibition) at 10uM” value was -16.1%.
For the compound `CCOC(=O)C1CCCN(C(=O)c2ccc3nc(-c4ccc(OC)c(OC)c4)c(-c4ccc(OC)c(OC)c4)nc3c2)C1` (stereo not shown), the “hERG current change (%, negative = inhibition) at 10uM” value is given as -5.45%.
The value for `Cc1cc(NC(=O)CSc2ccc(Cl)cc2)no1` was -3.36%.
To `O=C(Nc1nnc(SCC(=O)N2CCOCC2)s1)c1ccccc1Cl` belongs 3.26%; to `CC[C@H](C)[C@@H]1NC(=O)c2cc([N+](=O)[O-])cc(F)c2NCCCC[C@@H](C(N)=O)NC(=O)[C@H](CC(N)=O)NC1=O`, 8.58%.
With `O=C(Cn1nnc(-c2ccccc2NC(=O)c2ccccc2F)n1)NCc1ccco1`, the “hERG current change (%, negative = inhibition) at 10uM” value is listed as 10.1%.
The value for `NC(=O)c1cc(S(=O)(=O)N2CCN(c3ccc([N+](=O)[O-])cc3)CC2)cs1` was -74.4%.
The value for `CCCN1C(=O)N(C)C(N(O)C(=O)NC)C1(C)C` (stereo not shown) was 18%; that for `CSc1ncccc1C(=O)N1CCN(C(=O)c2ccccc2)CC1` was 19.9%; that for `CCOCCCn1c(=N)c(C(N)=S)cc2c(=O)n3cccc(C)c3nc21` was -82.6%.
The value for `CCOc1ccc(C(=O)CCN2CCCCC2)cc1` was -19.7%; that for `CCOc1cc(-c2noc(-c3cccnc3)n2)ccc1OC` was -3.28%; that for `CC(C)n1cc(CN2CCC(C(=O)Nc3cccc(-c4cscn4)c3)CC2)cn1` was -32.8%.
Consider `C=CC1CN(C(=O)OCC(Cl)(Cl)Cl)C2CC3c4ccc(OC)cc4NC3C3CC1C2CO3` (stereo not shown), for which the “hERG current change (%, negative = inhibition) at 10uM” value was -7.61%.
To `Cc1ccc(Nc2nc(N)c([N+](=O)[O-])c(NCCO)n2)cc1C` belongs 3.96%; to `COc1ccc(/C(O)=C2\C(=O)C(=O)N(c3cc(C)on3)C2c2ccccc2OC)cc1C` (stereo not shown), -8.59%; to `Cc1cccn2cc(CNC(=O)C3CCCCC3)nc12`, -12.6%.
The value for `O=C(CCSc1nnc(-c2ccncc2)o1)Nc1cccc(Cl)c1` was -9.38%.
The value for `CN(C)CCOc1ccc(Cl)cc1C(C)(C)C.O=C(O)C(=O)O` was -3.37%; that for `O=C(NCc1ccco1)c1ccc(CS(=O)Cc2ccc(Cl)cc2)o1` (stereo not shown) was -30.5%.
`O=C(c1ccccn1)C1CCCN(Cc2cn[nH]c2-c2cc3ccccc3o2)C1` (stereo not shown): the “hERG current change (%, negative = inhibition) at 10uM” value is on record as -70%.
To `COc1ccc(CCNc2ccc(C(CC(N)=O)NC(=O)c3ccccc3)cc2[N+](=O)[O-])cc1` (stereo not shown) belongs 7.15%; to `CC(NC(=O)/C=C/c1ccco1)c1nc2ccccc2n1Cc1cccc(Cl)c1` (stereo not shown), -67.2%; to `O=C(N=Nc1c(O)[nH]c(=O)[nH]c1=O)C1COc2ccccc2O1` (stereo not shown), -1.75%.
To `CCOP(=O)(OCC)C(O)c1ccc(OC)cc1OC` (stereo not shown) belongs 14.7%; to `Cc1sc2nc(SCC(=O)NCCOCCO)n(C)c(=O)c2c1C`, 3.26%.
The value for `COc1ccccc1N1C(=O)NC(=O)C2(Cc3cc(C)ccc3N(C)C2)C1=O` (stereo not shown) was -19%.
On to `COc1ccc(/C=C/C(=O)NCc2cn(C)nc2C)cc1COc1ccc(Cl)cc1Br`, for which the “hERG current change (%, negative = inhibition) at 10uM” value was 14%.
Regarding `CC(=O)N(CC1CCCO1)c1nnc(-c2ccccn2)s1` (stereo not shown), the “hERG current change (%, negative = inhibition) at 10uM” value is -5.02%.
To `O=C(NC(=O)c1ccccc1Cl)C(=O)Nc1ccc(Cl)cc1` belongs 9.59%; to `CCCn1nc(C(=O)OCC(=O)Nc2cccc(S(N)(=O)=O)c2)c2ccccc2c1=O`, 10.3%; to `O=C(Nc1nnc(Cc2ccccc2)s1)c1cccs1`, -9.52%.
Regarding `CCC(C)[C@H]1CNC(=S)N1CCc1cccc2ccccc12` (stereo partly shown), the “hERG current change (%, negative = inhibition) at 10uM” value was 25.2%.
The value for `COC(CN1C(=O)C(O)=C(C(C)=O)C1c1ccccn1)OC` (stereo not shown) was 2.12%; that for `O=C(NCc1ccccn1)NC1CCCCC1` was 7.23%; that for `CCCCCC(=O)Nc1ccc(S(=O)(=O)Nc2cc(OC)nc(OC)n2)cc1` was 14.8%.
The value for `COC(=O)/C(=N/Nc1ccccc1C)N1CCCc2ccccc21` was 0.724%; that for `CCN1CC2([N+](=O)[O-])CC=C(Cl)C([N+](=O)[O-])(C1)C2` (stereo not shown) was 13.9%; that for `O=C(O)CCC(=O)NNC(=O)COc1ccc2ccccc2c1Br` was 11.4%.
The value for `CC(C)NC(=O)CC1Nc2c3ccccc3nc(=S)n2C1=O` (stereo not shown) was -0.232%; that for `CC1COc2ccccc2N1S(=O)(=O)c1ccccc1` (stereo not shown) was 8.86%.
Turning to `COc1cc(OC)cc(C(=O)N[C@H](C(=O)OCC(=O)c2ccc3c(c2)NC(=O)CO3)C(C)C)c1`, the “hERG current change (%, negative = inhibition) at 10uM” value is listed as -6.82%.
To `CCS(=O)(=O)N(CC(=O)Nc1cccc2ccccc12)c1ccc(OC)cc1` belongs -3.1%; to `Cc1ccc(NC(=O)C(C)N2CCN(C)CC2)cc1S(=O)(=O)N1CCOCC1` (stereo not shown), 2.14%.

(Values after publication PMC4336329 (PLoS ONE, 2015).)
